Residue numbers refer to the chain shown, from its start. This is one part of the list.
T1: RBFOX1 RRM RbFoxmut (Fox-RRM*) (Homo sapiens, UniProt Q9NWB1 109-208, R118D;E147R;N151S;E152T)
T1 sequence: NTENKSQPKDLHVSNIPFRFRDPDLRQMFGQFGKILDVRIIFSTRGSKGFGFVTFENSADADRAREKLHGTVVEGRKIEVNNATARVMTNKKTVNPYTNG

B1: UACGUAG (DNA:RNA)
RNA: GGGAGACCGGAAUUCAGAUUGUCCUACGUAGUUAAAUCCCGUCGUAGCCACCA
DNA 1: CAATCTGAATTCCGGTCTCCC
DNA 2: TGGTGGCTACGACGGGATT
B2: CACGUUG (DNA:RNA)
RNA: B1 RNA with U25C, A30U
DNA 1: CAATCTGAATTCCGGTCTCCC
DNA 2: TGGTGGCTACGACGGGATT
B3: CUCGUUA (DNA:RNA)
RNA: B1 RNA with U25C, A26U, A30U, G31A
DNA 1: CAATCTGAATTCCGGTCTCCC
DNA 2: TGGTGGCTACGACGGGATT
B4: CUGUUCC (DNA:RNA)
RNA: B1 RNA with U25C, A26U, C27G, G28U, A30C, G31C
DNA 1: CAATCTGAATTCCGGTCTCCC
DNA 2: TGGTGGCTACGACGGGATT
B5: ACGUGCG (DNA:RNA)
RNA: B1 RNA with U25A, A26C, C27G, G28U, U29G, A30C
DNA 1: CAATCTGAATTCCGGTCTCCC
DNA 2: TGGTGGCTACGACGGGATT
B6: CAAUGCU (DNA:RNA)
RNA: B1 RNA with U25C, C27A, G28U, U29G, A30C, G31U
DNA 1: CAATCTGAATTCCGGTCTCCC
DNA 2: TGGTGGCTACGACGGGATT
B7: GCGACUA (DNA:RNA)
RNA: GGGAGACCGGAAUUCAGAUUGUCCGCGACUAUUAAAUCCCGUCGUAGCCACCA
DNA 1: CAATCTGAATTCCGGTCTCCC
DNA 2: TGGTGGCTACGACGGGATT
B8: CAAAGAG (DNA:RNA)
RNA: B1 RNA with U25C, C27A, G28A, U29G
DNA 1: CAATCTGAATTCCGGTCTCCC
DNA 2: TGGTGGCTACGACGGGATT
B9: CACCUAG (DNA:RNA)
RNA: B1 RNA with U25C, G28C
DNA 1: CAATCTGAATTCCGGTCTCCC
DNA 2: TGGTGGCTACGACGGGATT
B10: CAGCCCG (DNA:RNA)
RNA: B7 RNA with G25C, C26A, A28C, U30C, A31G
DNA 1: CAATCTGAATTCCGGTCTCCC
DNA 2: TGGTGGCTACGACGGGATT
B11: GAGAGGC (DNA:RNA)
RNA: B7 RNA with C26A, C29G, U30G, A31C
DNA 1: CAATCTGAATTCCGGTCTCCC
DNA 2: TGGTGGCTACGACGGGATT
B12: CUGGGUC (DNA:RNA)
RNA: B7 RNA with G25C, C26U, A28G, C29G, A31C
DNA 1: CAATCTGAATTCCGGTCTCCC
DNA 2: TGGTGGCTACGACGGGATT
B13: CUAUUUA (DNA:RNA)
RNA: B7 RNA with G25C, C26U, G27A, A28U, C29U
DNA 1: CAATCTGAATTCCGGTCTCCC
DNA 2: TGGTGGCTACGACGGGATT
B14: GCCGGCU (DNA:RNA)
RNA: B7 RNA with G27C, A28G, C29G, U30C, A31U
DNA 1: CAATCTGAATTCCGGTCTCCC
DNA 2: TGGTGGCTACGACGGGATT
B15: CCGGGCC (DNA:RNA)
RNA: B7 RNA with G25C, A28G, C29G, U30C, A31C
DNA 1: CAATCTGAATTCCGGTCTCCC
DNA 2: TGGTGGCTACGACGGGATT
B16: AUGUGCG (DNA:RNA)
RNA: B7 RNA with G25A, C26U, A28U, C29G, U30C, A31G
DNA 1: CAATCTGAATTCCGGTCTCCC
DNA 2: TGGTGGCTACGACGGGATT
B17: UAGGCUG (DNA:RNA)
RNA: B1 RNA with C27G, U29C, A30U
DNA 1: CAATCTGAATTCCGGTCTCCC
DNA 2: TGGTGGCTACGACGGGATT
B18: UGGCAUG (DNA:RNA)
RNA: B7 RNA with G25U, C26G, A28C, C29A, A31G
DNA 1: CAATCTGAATTCCGGTCTCCC
DNA 2: TGGTGGCTACGACGGGATT
B19: AAUUCAA (DNA:RNA)
RNA: B7 RNA with G25A, C26A, G27U, A28U, U30A
DNA 1: CAATCTGAATTCCGGTCTCCC
DNA 2: TGGTGGCTACGACGGGATT
B20: GUAUUAU (DNA:RNA)
RNA: B1 RNA with U25G, A26U, C27A, G28U, G31U
DNA 1: CAATCTGAATTCCGGTCTCCC
DNA 2: TGGTGGCTACGACGGGATT
B21: AGGUACA (DNA:RNA)
RNA: B7 RNA with G25A, C26G, A28U, C29A, U30C
DNA 1: CAATCTGAATTCCGGTCTCCC
DNA 2: TGGTGGCTACGACGGGATT
B22: ACUACAG (DNA:RNA)
RNA: B7 RNA with G25A, G27U, U30A, A31G
DNA 1: CAATCTGAATTCCGGTCTCCC
DNA 2: TGGTGGCTACGACGGGATT
B23: UGGAGGU (DNA:RNA)
RNA: B7 RNA with G25U, C26G, C29G, U30G, A31U
DNA 1: CAATCTGAATTCCGGTCTCCC
DNA 2: TGGTGGCTACGACGGGATT
B24: CGCUAUU (DNA:RNA)
RNA: B7 RNA with G25C, C26G, G27C, A28U, C29A, A31U
DNA 1: CAATCTGAATTCCGGTCTCCC
DNA 2: TGGTGGCTACGACGGGATT
B25: GAAAAGG (DNA:RNA)
RNA: B7 RNA with C26A, G27A, C29A, U30G, A31G
DNA 1: CAATCTGAATTCCGGTCTCCC
DNA 2: TGGTGGCTACGACGGGATT
B26: GCAAUCG (DNA:RNA)
RNA: B7 RNA with G27A, C29U, U30C, A31G
DNA 1: CAATCTGAATTCCGGTCTCCC
DNA 2: TGGTGGCTACGACGGGATT
B27: CAUUUAC (DNA:RNA)
RNA: B1 RNA with U25C, C27U, G28U, G31C
DNA 1: CAATCTGAATTCCGGTCTCCC
DNA 2: TGGTGGCTACGACGGGATT
B28: GGCUUUU (DNA:RNA)
RNA: B7 RNA with C26G, G27C, A28U, C29U, A31U
DNA 1: CAATCTGAATTCCGGTCTCCC
DNA 2: TGGTGGCTACGACGGGATT
B29: UGUCCAG (DNA:RNA)
RNA: B1 RNA with A26G, C27U, G28C, U29C
DNA 1: CAATCTGAATTCCGGTCTCCC
DNA 2: TGGTGGCTACGACGGGATT
B30: AUUGAUG (DNA:RNA)
RNA: B1 RNA with U25A, A26U, C27U, U29A, A30U
DNA 1: CAATCTGAATTCCGGTCTCCC
DNA 2: TGGTGGCTACGACGGGATT

Legend:
[1] = biological target: T1, RBFOX1 RRM RbFoxmut (Fox-RRM*); experiment: EMSA; HiTS-Eq, 1 nM pool, 10 min; buffer printed only for the single-RNA assays: 10 mM Tris pH 7.5, 150 mM NaCl, 3.4 mM EDTA, 0.001% NP-40, 30 C; conditions: tags: His6 N-terminal (pET28a); label: 5' 32P
Summary of the method: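 Purified wild-type or mutant RbFox RRM at increasing concentrations was equilibrated with 1 nM of 5′-radiolabelled RNA carrying 7 randomized nucleotides for 10 min in 50 µL. Unbound RNA was separated by 8% native PAGE and sequenced. Relative association constants came from read-count changes of each RNA species compared with the control reaction, normalised to the cognate motif.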

[2] = biological target: T1, RBFOX1 RRM RbFoxmut (Fox-RRM*); experiment: competition; 10 mM Tris pH 7.5, 150 mM NaCl, 3.4 mM EDTA, 0.001% NP-40, 30 C; conditions: tags: His6 N-terminal (pET28a)

Binder	binding signal [1]	binding signal [2] [nM]
B1	0.11 KA relative to UGCAUGU	–
B2	0.121 KA relative to UGCAUGU	–
GCAUGGG (ssRNA)	–	355
B3	0.13 KA relative to UGCAUGU	–
B4	0.12 KA relative to UGCAUGU	–
B5	0.182 KA relative to UGCAUGU	–
B6	0.0987 KA relative to UGCAUGU	–
B7	0.0829 KA relative to UGCAUGU	–
B8	0.106 KA relative to UGCAUGU	–
B9	0.115 KA relative to UGCAUGU	–
B10	0.0748 KA relative to UGCAUGU	–
B11	0.0763 KA relative to UGCAUGU	–
B12	0.179 KA relative to UGCAUGU	–
B13	0.109 KA relative to UGCAUGU	–
B14	0.0905 KA relative to UGCAUGU	–
B15	0.194 KA relative to UGCAUGU	–

Binder	binding signal [1]	binding signal [2] [nM]
B16	0.231 KA relative to UGCAUGU	–
B17	0.128 KA relative to UGCAUGU	–
B18	1.17 KA relative to UGCAUGU	–
B19	0.0801 KA relative to UGCAUGU	–
B20	0.157 KA relative to UGCAUGU	–
B21	0.102 KA relative to UGCAUGU	–
B22	0.0827 KA relative to UGCAUGU	–
B23	0.105 KA relative to UGCAUGU	–
B24	0.0918 KA relative to UGCAUGU	–
B25	0.035 KA relative to UGCAUGU	–
B26	0.0721 KA relative to UGCAUGU	–
B27	0.119 KA relative to UGCAUGU	–
B28	0.0624 KA relative to UGCAUGU	–
B29	0.144 KA relative to UGCAUGU	–
B30	0.12 KA relative to UGCAUGU	–

Source: PMC9911399, “Two distinct binding modes provide the RNA-binding protein RbFox with extraordinary sequence specificity”
